According to patent US20150010589A1 (published 2015):

Molecular target: von Willebrand factor (vWf factor VIII-free, Haematologic Technologies Inc) (Homo sapiens (Human), UniProt P04275 764-2813, Plasma-derived glycoprotein, a disulfide-linked multimer of this subunit. The letters cannot carry the glycans or the inter-chain disulfides.)
Assay: SPR

B1: recombinant Aegyptin (mature protein with C-terminal 6xHis tag, expressed in 293-F cells) (other)
chain: RPMPEDEEPVAEGGDDDASGESEGEEETTDDAGGDGGEEENEGEEHAGDKDAGGEDTGKEENTGHDDAGEEDAGEEDAGEEDAGEEDAGEEDAEKEEGEKEDAGDDAGSDDGEEDSTGGDEGEDNAEDSKGSEKNDPADTYRQVVALLDKDTKVDHIQSEYLRSALNNDLQSEVRVPVVEAIGRIGDYSKIQGCFKSMGKDVKKVISEEEKKFKSCMSKKKSEYQCSEDSFAAAKSKLSPITSKIKSCVSSKGRHHHHHH
- binding result: no binding
